Experimental data as given in PubChem BioAssay AID1745853 (National Center for Advancing Translational Sciences (NCATS), 2022).
The other results are listed elsewhere or left out. The main result of the screen is listed elsewhere. These columns were measured beside it and carry no call.

Columns and labels:
Experiment in all cases: Primary Screen for Target Class Profiling of Small Molecule Inhibitors of Methyltransferases
[1] = target: Glycine N-methyltransferase (Homo sapiens) (UniProt Q14749); conditions: purified enzyme, MTase-Glo SAH luminescence; measured here: GNMT inhibition; at 40 µM; stronger effect = lower value
Outline: (§1)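 Each enzyme was assayed with SAM and its substrate. SAH formation detected by MTase-Glo luminescence; single-point 40 uM screen[…].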

[2] = target: Guanidinoacetate N-methyltransferase (Homo sapiens) (UniProt Q14353); conditions: purified enzyme, MTase-Glo SAH luminescence; measured here: GAMT inhibition; at 40 µM; stronger effect = lower value
Outline: as §1

[3] = target: Histamine N-methyltransferase (Homo sapiens) (UniProt P50135); conditions: purified enzyme, MTase-Glo SAH luminescence; measured here: HNMT inhibition; at 40 µM; stronger effect = lower value
Outline: as §1

[4] = target: Nicotinamide N-methyltransferase (Homo sapiens) (UniProt P40261); conditions: purified enzyme, MTase-Glo SAH luminescence; measured here: NNMT inhibition; at 40 µM; stronger effect = lower value
Outline: as §1

[5] = target: Phenylethanolamine N-methyltransferase (Homo sapiens) (UniProt P11086); conditions: purified enzyme, MTase-Glo SAH luminescence; measured here: PNMT inhibition; at 40 µM; stronger effect = lower value
Outline: as §1
On the % scale 0 is the no-effect control and ±100 the full control effect.

SMILES	activity change, negative = inhibition [1]	activity change, negative = inhibition [2]	activity change, negative = inhibition [3]	activity change, negative = inhibition [4]	activity change, negative = inhibition [5]
Fc1cccc(-c2nnn3c2nc(N2CCOCC2)c2cc(Cl)ccc23)c1	-5.13%	-5.2%	-3.1%	-4.98%	-6.98%
CCOCCCNC(=O)N1Cc2c(sc3c2CCCC3)-n2cccc2C1c1ccc(OC)cc1 (stereo not drawn)	-4.47%	0.682%	2.35%	-6.92%	1.56%
O=C(Nc1ccc(F)c(Cl)c1)C1=NO[C@@H]2CN(CCc3ccccc3)C[C@H]12	-1.73%	-0.325%	-1.88%	-12.8%	-20.1%
c1ccc2c(c1)CCN2c1nccnc1OC1CCNC1 (stereo not drawn)	-4.04%	-1.2%	-16.6%	-9.55%	-3.78%
COc1cc(/C=C/C(=O)O[C@H]2C[C@@H]3C(C(=O)O)=CO[C@@H](O[C@@H]4O[C@H](CO)[C@@H](O)[C@H](O)[C@H]4O)[C@@H]3[C@H]2C)ccc1O	4.49%	3.42%	-1.62%	-7.85%	4.68%
Cc1nc(Nc2n[nH]c3c2CN(C(=O)NC(CN(C)C)c2ccccc2)C3(C)C)c2sccc2n1 (stereo not drawn)	-3.6%	-2.46%	-51.9%	-33.5%	-0.36%
CC1CCCCN1CCN1C(=O)c2ccc(-c3ccco3)n2CC1(C)C(=O)NC1CCCCC1 (stereo not drawn)	4.28%	2.4%	3.3%	7.13%	-14.1%
CC(C)OC(=O)N1CCC(Oc2ncnc3c2cnn3-c2ccc(S(C)(=O)=O)cc2F)CC1	-2.91%	0.996%	8.85%	-16.7%	-6%
O=C(N[C@H]1C[C@H]2C(=O)NC[C@@H](CCC(=O)N3CCN(c4ccccn4)CC3)N2C1)c1cccs1	-6.67%	1.51%	0.402%	-7.14%	-2.26%
Nc1ccn([C@H]2CC[C@@H](CO)O2)c(=O)n1	-0.409%	11.7%	3.84%	-4.31%	3.97%
CC1=CC2(O)/C=C/C(C)(O)CC(O)/C=C/C(=O)OC23C(=O)NC(CC(C)C)C3C1C (stereo not drawn)	3.42%	1.26%	7.26%	-8.49%	1.37%
CC(NC(=O)CCn1ccc2cc(S(=O)(=O)N3CCCC3)ccc21)c1ccccc1 (stereo not drawn)	5.99%	0%	7.11%	7.25%	4.97%
COCCN1Cc2[nH]nc(-c3ccsc3)c2CC1=O	-14.7%	-8.88%	-5.78%	-20.9%	-10%
COc1cccc(CNC(=O)N2Cc3c(sc4c3CCCC4)-n3cccc3C2c2cccc(OC)c2)c1 (stereo not drawn)	-3.32%	0%	3.27%	-13.5%	2.42%
CC(=O)Nc1ccc(C2(C(=O)NCc3cccs3)CCCCC2)cc1	-0.564%	-1.22%	-0.755%	-3.49%	7.88%
Cc1occc(=O)c1O[C@@H]1O[C@H](CO)[C@@H](O)[C@H](O)[C@H]1O	7.35%	11.4%	10.3%	-0.192%	9.43%
COCCN(CCOC)CC[C@@H]1CC[C@H](O)[C@@H](C(=O)NC2CCCCC2)O1	-4.39%	-10%	-2.71%	-2.4%	-6.62%
N#Cc1cccnc1-c1cccc(C(=O)NCCNC(=O)c2ccccc2)c1	-6.8%	-11.3%	-2.42%	-6.28%	-8.33%

SMILES	activity change, negative = inhibition [1]	activity change, negative = inhibition [2]	activity change, negative = inhibition [3]	activity change, negative = inhibition [4]	activity change, negative = inhibition [5]
Clc1ccc2ncc(-c3cccc(NC4CCNCC4)n3)n2c1	–	-3.71%	–	-21.2%	-5.99%
CC(=O)N1CC(CO)C2(CCN(C(=O)c3nccc4ccccc34)CC2)C1 (stereo not drawn)	1.62%	-1.95%	1.46%	1.98%	1.29%
COc1ccc(CCC(=O)O)c(O[C@@H]2O[C@H](CO)[C@@H](O)[C@H](O)[C@H]2O)c1	1.64%	6.06%	6.22%	-8.7%	0.264%
Cc1ccc(C)c(C(=O)Cn2nc3n(CC(C)C)c(=O)c4ccc(C(=O)NC(C)C)cc4n3c2=O)c1	6.11%	5.7%	3.1%	6.21%	3.94%
Cc1cc(C)c(NC(=O)CN(C)S(=O)(=O)c2ccc3[nH]c4c(c3c2)CCCC4)c(C)c1	0.377%	0%	0.565%	1.13%	1.66%
CC(=O)Nc1c2n(c3ccc(F)cc13)CC(C)(C(=O)NC1CCCC1)N(Cc1ccccc1F)C2=O (stereo not drawn)	-3.4%	0.921%	-5.34%	-3.76%	-7.53%
CC(C)OCCCNC(=O)c1ccc2c(=O)nc3c(-c4cccc(F)c4)n[nH]n3c2c1	-0.396%	4.16%	7.25%	3.89%	1.15%
Cc1cccc(N2CCN(C(=O)c3cc(S(=O)(=O)N(C)C)ccc3N3CCCC3)CC2)c1C	-2.87%	-4.78%	11.1%	-15.6%	-0.68%
Cc1cc(C)n(CCCN(C)C(=O)C2C3C(=O)N(CCC(C)C)C[C@@]34C=C[C@@H]2O4)n1 (stereo partly drawn)	0.957%	0.056%	2.67%	2.7%	5.72%
CN1C(=O)c2cc(C(=O)N3CCN(Cc4ccccc4)CC3)nn2CC1(C)C(=O)NCc1ccc(F)cc1 (stereo not drawn)	2.81%	0%	-4.7%	2.47%	3.55%
COCC(=O)Nc1ccc(-c2noc([C@@H]3CCCN3Cc3ncc[nH]3)n2)cn1	-9.07%	-6.53%	-5.89%	-5.98%	-7.07%
Fc1ccc(CN2CCn3c(nnc3-c3ccncc3)C2)cc1	-5.86%	-2.65%	-2.47%	-6.71%	-2.66%
CN(C)C[C@@H]1CN(c2ccncn2)C[C@H]1NC(=O)c1nccc2ccccc12	-4.48%	-1.52%	-0.407%	-5.3%	-2.39%
COc1ccc(OC)c(CNC(=O)c2cc3n(n2)CC(C)(C(=O)NC2CCCC2)N(C)C3=O)c1 (stereo not drawn)	1.95%	2.99%	8.62%	8.39%	3.09%
N#Cc1ccc(O[C@@H]2CCOC[C@H]2NC(=O)CN2CCOC2=O)cc1	-0.658%	-5.6%	-0.385%	-5%	-0.595%
CC1OC(O[C@@H]2[C@@H](O)[C@H](OC(=O)[C@]34CCC(C)(C)C[C@H]3C3=CCC5[C@@]6(C)CC[C@H](O[C@@H]7O[C@H](C(=O)O)[C@@H](O)[C@H](O[C@@H]8OC[C@@H](O)[C@H](O)[C@H]8O)[C@H]7O[C@@H]7O[C@H](CO)[C@H](O)[C@H](O)[C@H]7O)[C@@](C)(C=O)C6CC[C@@]5(C)[C@]3(C)C[C@H]4O)O[C@H](C)[C@@H]2OC2OC(C)C(OC3OCC(O)C(O)C3O)C(O)C2O)C(O)C(O)C1O (stereo partly drawn)	-0.933%	-0.016%	3.38%	-8.43%	2.97%
CCOC(=O)CNC(=O)N1Cc2c(sc3c2CCCC3)-n2cccc2C1c1ccc(SC)cc1 (stereo not drawn)	0.155%	0.906%	7.06%	-1.61%	6.6%
